Results taken from PubChem BioAssay AID504332 (National Center for Advancing Translational Sciences (NCATS), 2011).
Several values for one entry are separate records, joined by “and”; a condition that tells them apart may be missing. Equal entries are not always repeated. The campaign covered roughly 350,000 compounds. About 31,000 (8.9%) were called active. Inconclusive means that the source gave no clear call. Such entries were picked first, then a sample of the others. Calls come from the whole dose curve; as a rule, active = well fitted inhibition curve with a large enough effect; inconclusive = small, poorly fitted or top-dose-only effect; inactive = no such curve, though single readings can be large or run the other way. Where the call is inconclusive, the potency comes from a doubtful curve fit.

Molecular target: Histone-lysine N-methyltransferase EHMT2 (Homo sapiens) (UniProt Q96KQ7)
Assay: qHTS Assay for Inhibitors of Histone Lysine Methyltransferase G9a; note: nearly all actives have a fitted effect of over 75% in size
Conditions: G9a H3K9 monomethylation, AlphaScreen, 2 h; activity, negative = inhibition: at 59 µM (top of the series) unless noted
Outline: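 Quantitative HTS format: methyltransferase activity on a biotin-tagged H3K9 peptide is measured by AlphaScreen, using a rabbit anti-monomethyl-H3K9 antibody with streptavidin donor and anti-IgG acceptor beads. Final levels are 20 nM enzyme, 500 nM peptide, 20 uM SAM; 2 h RT.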
% is set by controls: 0 for no effect and ±100 for the full control effect; potency is the fitted concentration of half-maximal effect; tags give direction and shape of the fitted curve.

Sequence of UniProt Q96KQ7 (Q96KQ7 whole entry, looked up): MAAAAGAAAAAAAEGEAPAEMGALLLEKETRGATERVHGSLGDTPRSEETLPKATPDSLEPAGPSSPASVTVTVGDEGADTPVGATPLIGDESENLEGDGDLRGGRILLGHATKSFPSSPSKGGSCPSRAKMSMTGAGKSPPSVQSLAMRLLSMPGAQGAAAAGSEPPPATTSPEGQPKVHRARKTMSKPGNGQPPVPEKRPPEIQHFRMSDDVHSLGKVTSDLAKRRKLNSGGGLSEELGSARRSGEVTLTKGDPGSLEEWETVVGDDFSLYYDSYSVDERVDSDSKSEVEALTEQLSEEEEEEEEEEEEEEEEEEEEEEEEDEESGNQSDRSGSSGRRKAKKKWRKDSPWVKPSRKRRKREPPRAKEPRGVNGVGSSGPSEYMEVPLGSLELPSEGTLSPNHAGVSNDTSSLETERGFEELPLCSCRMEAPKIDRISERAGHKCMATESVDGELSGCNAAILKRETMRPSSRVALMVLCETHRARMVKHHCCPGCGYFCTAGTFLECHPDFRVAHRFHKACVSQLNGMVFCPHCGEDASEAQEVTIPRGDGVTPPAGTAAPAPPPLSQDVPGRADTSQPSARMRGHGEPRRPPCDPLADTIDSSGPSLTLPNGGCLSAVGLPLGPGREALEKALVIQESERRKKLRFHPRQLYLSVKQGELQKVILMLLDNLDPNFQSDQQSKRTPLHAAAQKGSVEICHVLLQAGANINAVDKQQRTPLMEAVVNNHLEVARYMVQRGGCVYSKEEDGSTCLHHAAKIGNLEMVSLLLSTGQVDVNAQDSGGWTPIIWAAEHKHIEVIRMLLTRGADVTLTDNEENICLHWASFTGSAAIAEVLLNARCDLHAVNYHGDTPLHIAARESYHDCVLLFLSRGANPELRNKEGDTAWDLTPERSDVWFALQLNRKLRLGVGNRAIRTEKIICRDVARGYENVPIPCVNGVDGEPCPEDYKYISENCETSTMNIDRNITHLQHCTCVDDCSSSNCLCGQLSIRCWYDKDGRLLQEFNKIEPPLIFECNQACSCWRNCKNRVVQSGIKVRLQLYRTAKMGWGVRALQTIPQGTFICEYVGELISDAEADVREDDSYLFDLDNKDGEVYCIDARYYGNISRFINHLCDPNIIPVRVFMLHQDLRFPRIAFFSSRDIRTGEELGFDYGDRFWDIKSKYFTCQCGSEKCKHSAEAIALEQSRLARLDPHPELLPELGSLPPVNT

Row | Structure (SMILES) | Potency | activity, negative = inhibition
1 | Cc1cc(C)c(NC(=O)c2c(C)nn(-c3ccc(F)cc3)c2-n2cccc2)c(C)c1 | inconclusive: 3.55 µM [inhibitor, partial curve, poor fit] | 
2 | CCCCN(CC)S(=O)(=O)c1ccc(C(=O)N(CCCN(C)C)c2nc3cc(C)cc(C)c3s2)cc1 | active: 44.7 µM | 
3 | CCC(=O)NC(=S)Nc1ccc(NC(=O)c2ccc([N+](=O)[O-])cc2)cc1 | inconclusive: 39.8 µM [inhibitor, single point] | 
4 | Cc1ccc(NC(=O)c2c(NC(=O)c3ccccc3Cl)sc3c2CCC3)cc1 | inactive | 
5 | CCOc1ccc(Nc2oc(Cc3ccccc3)nc2C#N)cc1 |  | inconclusive: -74.9% [inhibitor]
6 | O=C(NCc1cccs1)c1cccnc1SCCS(=O)(=O)c1ccc(C(F)(F)F)cn1 | active: 15.8 µM | 
7 | CN(C)CCN(C(=O)CN1C(=O)c2ccccc2C1=O)c1nc2cc3c(cc2s1)OCO3 | inconclusive: 35.5 µM [inhibitor, partial curve, poor fit] | 
8 | CCNc1nc(N)c(C(=O)c2ccc(Cl)s2)s1 |  | inconclusive: -79.1% [inhibitor]
9 | Cc1nc(N2CCNCC2)c2c3c(sc2n1)CCCC3 | inconclusive: 89.1 µM [inhibitor, single point] | 
10 | O=[N+]([O-])c1ccc(N2CCN(S(=O)(=O)c3ccc(Cl)c(Cl)c3)CC2)cc1NCCN1CCOCC1 | inconclusive: 44.7 µM [inhibitor, partial curve] | 
11 | CCCN(CC(=O)Nc1ccccc1OC)C(=O)C1=COCCO1 | inconclusive: 0.631 µM [inhibitor, full curve, poor fit] | 
12 | CCCOc1ccc2c(c1)C(=NN=C(N)N)c1cc(OCCC)ccc1-2 | inconclusive: 50.1 µM [inhibitor, partial curve, poor fit] | 
13 | Cc1ccc2nc(Cl)c3cc(C(=O)NCCCN(C)Cc4ccccc4)sc3c2c1 | inconclusive: 31.6 µM [inhibitor, single point] | 
14 | O=C1c2ccccc2C(Nc2ccc(S(=O)(=O)N3CCOCC3)cc2)N1c1ccccn1 (stereo unspecified) | inconclusive: 89.1 µM [inhibitor, single point] | 
15 | CSc1nc(=O)c2c(n1C)NC(=O)CC2c1cc(F)cc(F)c1 (stereo unspecified) | inconclusive: 31.6 µM [inhibitor, partial curve, poor fit] | 
16 | NS(=O)(=O)c1ccc(-n2ncc3c(=O)[nH]c(SCC(=O)Nc4nccs4)nc32)cc1 | active: 44.7 µM | 
17 | O=C(CCN1C(=O)/C(=C/c2cccs2)SC1=S)Nc1ccccn1 | active: 3.16 µM | 
18 | CCCC(=O)Nc1cc(-c2nnc(OC)c3ccccc23)ccc1N1CCCCC1 |  | inconclusive: -54.6% [inhibitor] [at 12.7 µM]
19 | COc1cc(C(=O)N2CCN(C/C=C/c3ccccc3)CC2)cc(OC)c1C | inconclusive: 3.16 µM [inhibitor, partial curve, poor fit] | 
20 | c1coc(C2Nc3cccc4cccc(c34)N2)c1 | inconclusive: 0.891 µM [inhibitor, single point] | 
21 | C=C1c2cccc(OC)c2O[C@H](C(=O)OCC)[C@@H]1CCCCCC | inconclusive: 28.2 µM [inhibitor, single point] | 

Row | Structure (SMILES) | Potency | activity, negative = inhibition
22 | N#CC(C#N)=C1C=C2C=C(N3CCOCC3)CCC2CC1 (stereo unspecified) | inconclusive: 11.2 µM [inhibitor, partial curve, poor fit] | 
23 | O=C1NC(=Nc2ccc(O)cc2)S/C1=C/c1ccco1 | inconclusive: 89.1 µM [inhibitor, single point] | 
24 | N/C(=N\OC(=O)c1cccs1)c1ccc(Cl)cc1 | inactive | 
25 | COc1ccc(OC)c2sc(N(CCN(C)C)C(=O)c3cc(Cl)sc3Cl)nc12 | inconclusive: 39.8 µM [inhibitor, partial curve, poor fit] | 
26 | Cc1nn(C)cc1S(=O)(=O)Nc1cccc(Cl)c1 | inconclusive: 89.1 µM [inhibitor, single point] | 
27 | Cc1cc([N+](=O)[O-])c(C)cc1-c1ccc(/C=N/NC(=O)c2cccnc2)o1 | active: 44.7 µM | 
28 | CC(C)N(C)CCOC(=O)C1COc2ccccc2O1 (stereo unspecified) | inconclusive: 70.8 µM [inhibitor, partial curve] | 
29 | CO/N=C(/CS(=O)(=O)c1ccc(C)cc1)c1ccc(OC)cc1 | inconclusive: 89.1 µM [inhibitor, single point] | 
30 | COc1ccc(NC(=O)CN(C)CC(=O)NCC2CCCCC2)cc1 | active: 56.2 µM | 
31 | OC(CN1CCNCC1)Cn1c2ccccc2c2ccccc21 (stereo unspecified) | active: 50.1 µM | 
32 | Cc1[nH]n(-c2ncc(-c3ccccc3)s2)c(=O)c1C(c1ccc(Br)cc1)C(C#N)C#N (stereo unspecified) | inconclusive: 25.1 µM [inhibitor, single point] | 
33 | COc1ccc(-c2cccc(NS(=O)(=O)c3cc([N+](=O)[O-])ccc3Cl)c2)nn1 | inconclusive: 56.2 µM [inhibitor, partial curve] | 
34 | COc1ccc(CN2CCN(c3ccccn3)CC2)cc1OCc1ccccc1 | inconclusive: 0.501 µM [inhibitor, partial curve, poor fit] | 
35 | COc1ccc2c(c1)C(C)=CC(C)(C)N2C(=O)Nc1ccccc1 | inconclusive: 20 µM [inhibitor, partial curve, poor fit] | 
36 | CCN1CCN(c2cc(C)c3cc(NC(=S)NCCCN4CCc5ccccc5C4)ccc3n2)CC1 | active: 31.6 µM | 
37 | CC1CN(S(=O)(=O)c2cccc3cnccc23)CCN1 (stereo unspecified) | inconclusive: 50.1 µM [inhibitor, partial curve] and inconclusive: 25.1 µM [inhibitor, single point] | 
38 | COc1ccccc1-c1ccc(SCC(=O)NC2CCCC2)nn1 | inconclusive: 63.1 µM [inhibitor, partial curve, poor fit] | 
39 | O=C(c1cccc(S(=O)(=O)N2CCOCC2)c1)N1CCN(c2ccccc2)CC1 |  | inactive: 10.5% [at 2.33 µM]
40 | CCN1C(=O)/C(=C/C2=Cc3ccccc3OC2C)SC1=S (stereo unspecified) | inconclusive: 3.16 µM [inhibitor, partial curve, poor fit] | 
41 | CCOc1ccc2nc(SCC(=O)NCc3ccco3)sc2c1 | inconclusive: 56.2 µM [inhibitor, partial curve, poor fit] | 
